Measurements: PubChem BioAssay AID493208 (National Center for Advancing Translational Sciences (NCATS), 2011)
The campaign covered roughly 44,000 compounds. About 340 (0.77%) were called active. Roughly 5% stayed inconclusive and do not appear here. Calls follow the shape of the dose curve; as a rule, active = well fitted inhibition curve with a large enough effect; inconclusive = small, poorly fitted or top-dose-only effect; inactive = flat fitted curve, though single readings scatter. The list shows a part of the results.

Experiment: Acumen qHTS Assay for Inhibitors of the mTORC1 Signaling Pathway in MEF (Tsc2-/-, p53-/-) Cells: Sytravon;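 also: plate controls were DMSO for no effect and rapamycin for full effect; nearly all actives have a fitted effect of over 50% in size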
Conditions: phospho-rpS6 immunofluorescence/PI, 24 h; series mostly up to 38.3 µM; activity change, negative = inhibition: at the top concentration
From the text: NIH Molecular Libraries Probe Production Centers Network [MLPCN] NIH Chemical Genomics Center [NCGC] MLPCN Grant: NS059428-01 Assay Submitter (PI): Blenis, John; Hoffman, Greg; Harvard University NCGC Assay Overview: The mammalian target of rapamycin (mTOR) is an intracellular serine/threonine kinase Aberrant regulation of mTOR signaling plays a causative role in a number of human diseases, including cancer, benign tumors such as lymphangioleiomyomatosis (LAM) and Tuberous Sclerosis Complex (TSC), and metabolic diseases such as diabetes and obesity. This project aims to identify inhibitors of ribosomal protein S6 (rpS6) phosphorylation. The phosphorylation of rpS6 is a key event downstream of mTOR activation. The assay uses a phospho-specific antibody of phospho-rpS6 to detect inhibitors of mTOR activation. Mutations in the Tsc1 and Tsc2 genes are the underlying genetic lesions responsible for TSC, causing constitutive activation of the mTORC1 pathway and leading to profound effects on cell metabolism. Aberrant metabolism in cancer has recently received significant attention as a target to develop therapeutic agents in the treatment of cancer.1 As Tsc2-/- cells have lost the ability to respond to energy and growth factor deprivation, these cells are unable to properly down regulate cellular biosynthetic processes in response to metabolic stress, and are thus extremely sensitive to glucose deprivation-induced death.2 A central goal of this project is to explore the unique cell survival and metabolic properties of cells with Tsc1 or Tsc2 by screening for compounds that selectively target the Tsc2-/- MEFs by screening both Tsc2-/- and WT MEF cell lines. We hope to better understand these aspects of TSC physiology in order to exploit them for therapeutic benefit.
NCGC Acumen Assay Protocol Summary: For quantitative high throughput analysis of mTORC1 signaling, we developed a cell-based assay for immuno-fluorescence based detection of rpS6 phosphorylation on the Acumen Explorer that will be used a platform for the primary small molecule screen. Mouse embryonic fibroblasts (MEFs) are cultured in 1536-well plates using DMEM + 10% FBS. Twenty-four hrs after plating, test compounds (solubilized in DMSO) are delivered and incubated with the cells for 24 hrs at 37 degree Celsius. Following the incubation, media with compound is aspirated and the cells are fixed in 4% paraformaldehyde (PFA) containing PBS + 0.2% TX-100. Next, PFA is aspirated, cells are washed two times with PBS plus 0.2% TX-100 and the cells are blocked for 1 hr at room temperature (blocking buffer: LiCOR Blocking Buffer plus 0.2% TX-100). […] Cells are washed two times with PBS plus 0.2% TX-100, and stained with 10 uM propidium iodide (PI) for 20-25 minutes for cell number measurement (1:500 dilution of Hoescht staining is also added for IN Cell imaging). The plates are scanned on the Acumen Explorer laser scanning instrument (TTP Labtech) using the 488nm laser for simultaneous excitation of the Alexa-488 and PI. […] The normalized phospho-S6 staining is calculated as the ratio of the integrated Alexa 488 intensity divided by the integrated PI intensity for the single concentration rapamycin control (7.5 nM) and DMSO columns. […] Inhibition of the pathway is defined based on the normalized phospho-S6 intensity in rapamycin treated cells. Active cells are defined as those with a normalized phospho-S6 staining above this threshold, and each treatment is reported as the % positive cells in the well, where thresholds are defined by selecting wells with the highest and lowest signal and differentiating between the % non-active and % active populations. In addition to the pathway specific phospho-S6 endpoint, the number of PI stained cells from the Acumen is recorded as a measure of cell viability. The primary screen was performed with a MEF cell line in a defined genetic background, Tsc2-/-, p53-/- cell line stably transfected with an empty vector control (Tsc2-/- MEF).

Activity change, negative = inhibition, inactive:
CCCn1c(=O)c2sccc2n2c(CCCC(=O)NC3CCC(C)CC3)nnc12 (stereo not drawn) 2.62%
COCCOC(=O)C1=C(C)NC(=O)NC1c1cn(-c2ccccc2)nc1-c1ccccc1 (stereo not drawn) -1.79%
COc1ccc(OC)c(CCNC(=O)CCc2cn(Cc3cc(C)ccc3C)c3ccccc23)c1 -16.7%
O=C(Cn1c(=O)c2cccn2c2ccc(F)cc21)N1CCN(c2ccccc2F)CC1 -4.29%
Cc1ccc(Cl)cc1NS(=O)(=O)c1ccc2c(c1)NC(=O)CCS2 -0.593%
Fc1ccc(-n2ncc3c(NCCCn4ccnc4)ncnc32)cc1 5.42%
COc1cccc(C2NC(=O)c3n[nH]c(-c4cccs4)c32)c1 (stereo not drawn) -18%
COc1ccc(Br)cc1CNC(=O)c1cnc2sc(N3CCCC3)nn2c1=O -11.6%
COc1ccc(C(=O)N(Cc2cc(OC)c(OC)c(OC)c2)c2ccccn2)cc1 -16.6%
O=C(Cn1c(=O)nc(-c2ccccc2)c2ccccc21)NCCc1ccc(Cl)cc1 0%
CN1CCN(C(CNC(=O)c2ccccc2F)c2ccc3c(c2)OCO3)CC1 (stereo not drawn) -2.27%
Cc1cc2[nH]c(=O)c(=O)[nH]c2cc1S(=O)(=O)N1CCN(c2cccc(C(F)(F)F)c2)CC1 -0.21%
COc1ccc(NC(=O)c2sc3nc(-c4cc5ccc(OC)cc5oc4=O)[nH]c(=O)c3c2C)cc1 3.76%
CCCCN(CC)CCNC(=O)CCn1cnc2onc(-c3ccc(F)cc3)c2c1=O -13.8%
Cc1cccc(-n2cc(-c3ccccc3)c3c(N4CCC(C)CC4)ncnc32)c1 8.92%
COc1cc(NC(=O)NCC2CCN(Cc3ccccc3Cl)CC2)cc(OC)c1OC -1.5%
COc1ccc(-c2cn3nc(N4CCCC(C(=O)Nc5cc(C)ccc5C)C4)sc3n2)cc1 (stereo not drawn) 0.51%
COc1ccc(Cl)cc1NC(=O)c1cnc(SC)nc1-c1ccccc1 -0.13%
Cc1ccccc1NC(=O)C(=O)NCC1(c2ccccc2)CCCC1 -1.58%
CCN1CCN(c2ncc3c(n2)CCN(Cc2sccc2C)C3)CC1 11.5%
O=C(CSc1nnc2scc(-c3ccc(Cl)cc3)n12)Nc1cccc(C(F)(F)F)c1 -16.4%
COc1cc(NC(=O)CC(C)S(=O)(=O)c2ccc3c(c2)CCN3C(C)=O)cc(OC)c1OC (stereo not drawn) 3.79%
CCOc1ccc(Nc2nc(C)c(NC(=O)c3ccc(C)cc3)c(Nc3ccc(OCC)cc3)n2)cc1 -16.4%
Cc1ccc(NC(=O)CN(C)S(=O)(=O)c2cccc3cccnc23)cc1F -8.57%
COc1ccc(Cl)cc1Nc1nc2ccc(C(=O)c3ccccc3)cc2n2cnnc12 -15.4%
CCOC(=O)Cc1ccc(NC(=O)N2CCc3c(sc4c3CCCC4)C2c2ccc(F)cc2)cc1 (stereo not drawn) 0%
CCn1c(=O)c2cc(C(=O)N3CCN(c4cccc(OC)c4)CC3)sc2c2ccccc21 -19%
CCc1ccc(C(c2ccccc2)c2c[nH]c3ccc(C)cc23)s1 (stereo not drawn) -10.7%
CN(CC(=O)Nc1ccc(Cl)cc1F)S(=O)(=O)c1ccc2c(c1)n(C)c(=O)c(=O)n2C -11.6%
Cc1sc2ncn(CC(=O)N3CCN(c4ccccc4)CC3)c(=O)c2c1S(=O)(=O)N1CCN(c2ncccn2)CC1 0.814%
CCc1cccc(-n2nnc(-c3nsc(NC(=O)c4ccc(C)cc4)n3)c2C)c1 -17.2%
Fc1ccc(C(Nc2ccccc2Cl)c2nnc(-c3ccccc3Cl)o2)cc1 (stereo not drawn) -22.5%
Cc1ccc(NC(=O)[C@H]2O[C@@H]3OC(C)(C)O[C@@H]3[C@H]3OC(C)(C)O[C@H]32)cc1F -13.4%
Cc1ccc(NC(=O)c2cccc(N3CCCS3(=O)=O)c2)cc1C 1.15%
CC(C(=O)Nc1ccccc1C(F)(F)F)n1nnc2sc3c(c2c1=O)CCCC3 (stereo not drawn) -7.42%
CCc1ccc(CNC(=O)CSc2c3c(nc4ccc(Cl)cc24)CCCC3)cc1 -0.268%
O=C(NCCn1cc(SCc2ccccc2F)c2ccccc21)c1cccs1 -14.6%
CCS(=O)(=O)NCC(c1ccco1)N1CCN(c2ccccc2)CC1 (stereo not drawn) -0.432%
CSc1nc(Nc2ccc(C)cc2)c(C#N)c(-c2ccccc2)n1 -8.88%
Cc1ccc2c(c1)C(c1ccccc1)N(C(=O)c1ccc(S(=O)(=O)N3CCCCC3)cc1)CC(=O)N2 (stereo not drawn) 4.83%
Cc1ccc(CSc2ncc(Cl)c(C(=O)Nc3nc4ccc(C)cc4s3)n2)cc1 3.92%
Oc1c(C(c2ccccc2)N2CCN(c3cccc(Cl)c3)CC2)sc2nc(-c3ccco3)nn12 (stereo not drawn) -5.34%
O=c1c(=O)n(-c2ccccc2)ccn1Cc1cccc(C(F)(F)F)c1 3.01%
O=C(NCc1ccc(F)cc1)c1ccc(CS(=O)Cc2ccc(Cl)cc2)o1 (stereo not drawn) -0.463%
Cc1ccc(NC(=O)c2cc3nc(-c4ccc5c(c4)OCO5)cc(C(F)(F)F)n3n2)cc1Cl 11.9%
COc1ccccc1CNS(=O)(=O)c1cc(Br)cc2c1N(C(C)=O)C(C)C2 (stereo not drawn) -0.0492%
O=C1COc2ccc(-c3cc(-c4ccc(F)cc4)c4c(n3)-c3cc(Cl)ccc3OC4)cc2N1 -4.57%
COc1cc(Cl)c(NC(=O)c2cc(CN3CCCC3)on2)c(OC)c1 -0.382%
